# In PMC12820563:
# The list shows a part of the results. The list includes weakly bound sequences.
# Biological target: T1, MBP-FoxP3dN (UniProt Q99JB6)
# T1 sequence: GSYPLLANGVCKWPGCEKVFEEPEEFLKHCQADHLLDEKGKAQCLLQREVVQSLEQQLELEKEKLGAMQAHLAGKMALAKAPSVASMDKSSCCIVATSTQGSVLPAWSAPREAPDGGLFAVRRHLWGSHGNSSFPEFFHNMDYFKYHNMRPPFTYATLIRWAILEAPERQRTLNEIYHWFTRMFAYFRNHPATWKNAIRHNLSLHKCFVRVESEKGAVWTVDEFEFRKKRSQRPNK
# Assay: PD-seq (MBP pull-down with sequencing)
# Details: 20 mM Tris-HCl pH 7.5, 100 mM NaCl, 1.5 mM MgCl2, 0.4 uM protein, 0.1 uM dsDNA library, 30 min, room temperature, amylose pull-down; high values mean tight binding; double strand, one strand shown
row,Sequence,binding signal (RPM ratio (pull-down/input))
1,GATGATTGTTCTCCCAGCTGATGAATTCCTCAGATCGAGTAAACAAATTTTCCTAATCTTTCTGTTCAAGCGCCATCTAC,0.195
2,GATGATTGTTCTCCCAGCTGATGAATTAACACGATCGAGTAAACAAATTTTCCTAATCTTTCTGTTCAAGCGCCATCTAC,0.335
3,GATGATTGTTCTCCCAGCTGATGAATTTTGATATTCGAGTAAACAAATTTTCCTAATCTTTCTGTTCAAGCGCCATCTAC,3.34
4,GATGATTGTTCTCCCAGCTGATGAATTAATGGCATCGAGTAAACAAATTTTCCTAATCTTTCTGTTCAAGCGCCATCTAC,1.12
5,GATGATTGTTCTCCCAGCTGATGAATTCTTCCAGTCGAGTAAACAAATTTTCCTAATCTTTCTGTTCAAGCGCCATCTAC,0.207
6,GATGATTGTTCTCCCAGCTGATGAATTTAGAGTTTCGAGTAAACAAATTTTCCTAATCTTTCTGTTCAAGCGCCATCTAC,1.41
7,GATGATTGTTCTCCCAGCTGATGAATTCCAGGACTCGAGTAAACAAATTTTCCTAATCTTTCTGTTCAAGCGCCATCTAC,0.223
8,GATGATTGTTCTCCCAGCTGATGAATTCCGGATCTCGAGTAAACAAATTTTCCTAATCTTTCTGTTCAAGCGCCATCTAC,0.23
9,GATGATTGTTCTCCCAGCTGATGAATTCTTGTACTCGAGTAAACAAATTTTCCTAATCTTTCTGTTCAAGCGCCATCTAC,0.415
10,GATGATTGTTCTCCCAGCTGATGAATTTATGCGTTCGAGTAAACAAATTTTCCTAATCTTTCTGTTCAAGCGCCATCTAC,2.61
11,GATGATTGTTCTCCCAGCTGATGAATTTCCCTATTCGAGTAAACAAATTTTCCTAATCTTTCTGTTCAAGCGCCATCTAC,0.314
12,GATGATTGTTCTCCCAGCTGATGAATTGCCAGATTCGAGTAAACAAATTTTCCTAATCTTTCTGTTCAAGCGCCATCTAC,0.409
13,GATGATTGTTCTCCCAGCTGATGAATTTGGGTTGTCGAGTAAACAAATTTTCCTAATCTTTCTGTTCAAGCGCCATCTAC,1.1
14,GATGATTGTTCTCCCAGCTGATGAATTGATTAACTCGAGTAAACAAATTTTCCTAATCTTTCTGTTCAAGCGCCATCTAC,0.37
15,GATGATTGTTCTCCCAGCTGATGAATTCAATTATTCGAGTAAACAAATTTTCCTAATCTTTCTGTTCAAGCGCCATCTAC,2.26
16,GATGATTGTTCTCCCAGCTGATGAATTCATTGATTCGAGTAAACAAATTTTCCTAATCTTTCTGTTCAAGCGCCATCTAC,1.18
17,GATGATTGTTCTCCCAGCTGATGAATTATGCGAGTCGAGTAAACAAATTTTCCTAATCTTTCTGTTCAAGCGCCATCTAC,1.6
18,GATGATTGTTCTCCCAGCTGATGAATTGTGTAGTTCGAGTAAACAAATTTTCCTAATCTTTCTGTTCAAGCGCCATCTAC,3.86
